# Test results: PubChem BioAssay (NCATS)
# Several values for one entry are separate records, joined by “and”; a condition that tells them apart may be missing. Identical values can stand only once. The list shows a part of the results. Shown are side measurements of this screen, not its main read-out; they come without a call. For some of these results: The list favours compounds with an active or inconclusive main result. For some of these results: Words in brackets tell the shape of the fitted curve; partial curves, single points and poor fits give uncertain potencies.
# Tests used:
# [1] = qHTS Assay for Lipid Storage Modulators (AID 1519); details: Drosophila S3 cells, BODIPY lipid droplet/cell ratio, laser cytometry, cells loaded with oleic acid
# Summary of the method: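 Cells seeded at 5,000 per well were treated with compounds over a concentration series and loaded with oleic acid (400 uM, as added). Lipid droplet fluorescence (488 nm excitation, 500-530 nm channel) was read by laser-scanning cytometry and normalized to 20 uM Triacsin C.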
# [2] = S16 Schwann cell PMP22 intronic element beta-lactamase assay (AID 624044); details: S16 rat Schwann cells, PMP22 element beta-lactamase FRET, 24 h; measured here: 460 nm blue channel; further: nearly all actives have a fitted effect of over 15% in size
# Summary of the method: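 Rat S16 Schwann cells with beta-Lac driven by a PMP22 intronic element, compound-treated 24 h at 37 °C. LiveBLAzer FRET B/G read: 460 nm normalized to potassium clavulanate vs DMSO; 535 nm FRET as viability; concentration-effect curves classified.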
# [3] = qHTS drug screen for cell cycle checkpoint inhibitors in PARPi-resistant BRCA-mutant ovarian cancer cell lines. (AID 1963452); details: PEO1/OlaR viability, CellTiter-Glo luminescence, 96 h
# Summary of the method: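 PEO1, PEO4 and PEO1/OlaR ovarian cancer cells, 600 per well, exposed 96 h at 37C to a dilution series. Viability read by CellTiter-Glo luminescence, normalized to DMSO and empty wells; activity summarized as Z-AUC.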
# [4] = A High-Content qHTS Against Drug Library for the Identification of Small Molecules that Inhibit DYT1 Early Onset Primary Dystonia-Associated Cell Pathology (AID 1645839); details: HEK293 Flp-In EGFP-delE TorsinA, punctate imaging, 48 h; measured here: cell count cytotoxicity
# Summary of the method: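 Readout: %pathology, the punctate EGFP-TorsinA distribution from imaging, as the primary channel and cell count as the toxicity counterscreen. HEK293 Flp-In cells expressing delE TorsinA were induced with tetracycline and treated with compound for 48 h.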
# [5] = qHTS assay for small molecule antagonists of peroxisome proliferator-activated receptor delta signaling (AID 588535); details: HEK293T PPARd-UAS-bla, beta-lactamase FRET ratio, 18 h; 460 nm channel;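 further: cells co-treated with a PPAR-delta agonist as stimulator during compound exposure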
# Summary of the method: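 GeneBLAzer PPAR-delta-UAS-bla HEK293T cells in medium with 2% charcoal/dextran FBS were preincubated 5 hrs at 37 C, then given compounds, incubated 18 hrs at 37 C, and read by CCF4 beta-lactamase fluorescence; IC50 from Hill fits.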
# [6] = qHTS assay for small molecule agonists of retinoid X receptor alpha signaling (AID 588544); details: HEK293T RXRa-UAS-bla, beta-lactamase reporter, 18 h; 530 nm emission
# [7] = NCATS anti-infectives library activity on the primary C. elegans qHTS viability assay (AID 1745855); details: C. elegans worm area imaging, day 7; measured here: worm area, day 3
# Summary of the method: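 Viability is taken from GFP fluorescence of PE254-GFP-FLuc C. elegans imaged by laser cytometry over 7 days. Ten L1 worms per well grow at 21 °C on TOP10 E. coli capsules with titrated compound; levamisole marks toxicity.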
# [8] = qHTS for identification of novel therapeutic agents for treatment of microphthalmiaassociated transcription factor (MiT) renal cell carcinoma (RCC) (AID 1963991); details: CellTiter-Glo, 48 h; for z-score: stronger effect = lower value; for AC50: measured here: UOK145 cell viability;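 on z-score: curves scaled with 100% = DMSO viability and 0% = empty wells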
# Summary of the method: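 UOK109/UOK124/UOK145 (TFE3 fusions, three partners); 500 cells/well; MIPE v4.0, 1912 cpds, 11 conc.; 48 h, 37 C; CellTiter-Glo, 15 min RT; lum. Norm.: DMSO 100%, empty 0%.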
# [9] = qHTS Assay for Modulators of Human Peripheral Myelin Protein 22 (PMP22) Expression/Activity (AID 1967); details: Cell-based PMP22 reporter, dual-color luciferase ratio; measured here: red reporter channel AC50; EF-alpha promoter control reporter in MSC80 mouse Schwann cells
# Summary of the method: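 Luminescence ratio of Pmp22 promoter-driven green luciferase to EF-alpha-driven red luciferase, in engineered mouse MSC80 Schwann cells, served as read-out. Compounds were incubated 24h; untreated cells defined 0% Activity; curves were classified by r2, magnitude and activity.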
# [10] = qHTS Validation Assay for Iinhibitors of HIV-1 Budding by Blocking the Interaction of PTAP/TSG101 (AID 485342); details: TSG101-PTAP binding, fluorescence polarization, 4-point titration; measured here: FITC channel readout
# Summary of the method: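 Binding of a FITC-tagged PTAP-motif peptide (50 nM) to the Tsg101 binding domain (10 uM) is monitored by fluorescence polarization. Compounds are pin-delivered before peptide addition, and incubation runs 20 min at room temperature.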
# [11] = qHTS Validation Assay to Find Inhibitors of Chronic Active B-Cell Receptor Signaling (AID 485345); details: ABC-DLBCL cells, chronic BCR signaling reporter; measured here: CBG/CBR ratio read-out
# Summary of the method: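 TMD8 ABC-DLBCL cells with dox-inducible green luciferase–IκBα fusion and red native luciferase; compounds 46 uM–3 nM, 4 h at 37C with doxycycline in 0.5% FBS IMDM. Green/red ratio normalized to basal and 10 uM MG-132.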
# [12] = Nrf2 qHTS screen for inhibitors: Validation (AID 493153); details: A549 ARE-Fluc reporter, 18-24 h; AC50: CellTiter-Fluor fluorescence read, measured here: cytotoxicity CellTiter-Fluor AC50; viability change: measured here: cytotoxicity max response
# Summary of the method: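 A549 cells carrying an ARE-driven firefly luciferase reporter, in 5% FBS OPTI-MEM, were treated with compounds in concentration-response for 18-24 h at 37°C. Viability was read by CellTiter-Fluor fluorescence, then Nrf2 activity by luciferase luminescence.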
# [13] = qHTS assay for small molecule antagonists of androgen receptor signaling (AID 588516); details: AR-UAS-bla HEK293, beta-lactamase ratio, antagonist mode, 16 h
# Summary of the method: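 Antagonist-mode qHTS: inhibition of R1881 (10 nM)-driven beta-lactamase expression in GripTite HEK 293 cells is measured after 16 h; values are Hill-derived IC50s normalized between R1881 and DMSO wells.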
# [14] = qHTS assay for small molecule antagonists of peroxisome proliferator-activated receptor gamma signaling (AID 588537); details: HEK293 PPARg-UAS-bla, beta-lactamase ratio, antagonist mode; measured here: W460 blue channel
# Summary of the method: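 PPAR-gamma-UAS-bla HEK293 cells (3000/well, 1% charcoal/dextran-stripped FBS) were preincubated 6-6.5 h at 37 C, given titrated compounds, then stimulated with 50 nM rosiglitazone for 16 h. Beta-lactamase activity was read with CCF4 dye; IC50 came from Hill fits.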
# [15] = qHTS assay for small molecule antagonists of vitamin D receptor signaling (AID 588541); details: HEK293T VDR-UAS-bla, beta-lactamase ratio, antagonist mode; measured here: W460 blue channel (cell viability)
# [16] = qHTS assay for small molecule antagonists of retinoid X receptor alpha signaling (AID 588546); details: HEK293T RXRa-UAS-bla, beta-lactamase ratio, antagonist mode; measured here: W530 green channel, cytotoxicity proxy;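 further: cells stimulated with 9-cis-retinoic acid as agonist; on the % scale 0 is the no-effect control and ±100 the full control effect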
# Summary of the method: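 Beta-lactamase reporter inhibition, read as CCF4 fluorescence ratio (ex 405, em 460/530 nm) after 2 h at RT. HEK293T UAS-bla cells, 2500/well, were stimulated with 9-cis-RA at 500 or 100 nM final alongside test compound for 18 h at 37 C.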
# [17] = measured here: cell count channel max response
# [18] = measured here: cell number channel AC50
# [19] = measured here: lipid (BODIPY) channel AC50
# [20] = measured here: lipid channel max response
# [21] = measured here: PEO1 parental viability
# [22] = TFE3-RCC UOK109 viability, measured here: UOK109 Z-AUC
# [23] = TFE3-RCC viability, measured here: UOK124 Z-AUC
# [24] = TFE3-RCC viability, measured here: UOK145 Z-AUC
# Tags describe the fitted curve by direction and shape.
structure (smiles),measurement,setting,value
CC1(C)CCC(NC(=O)[C@@H](N)CCC(=O)O)CC1,max response,[1]; [17],-71.5%
same,AC50,[1]; [18],"0.00891 µM [falling, full curve, poor fit]"
same,AC50,[1]; [19],"0.00891 µM [falling, full curve, poor fit]"
same,max response,[1]; [20],-71.1%
same,AC50,[2],"1.41 µM [falling, partial curve, poor fit]"
O=c1[nH]c(=O)n([C@H]2C[C@H](O)[C@@H](CO)O2)cc1F,max response,[1]; [17],35.4%
same,AC50,[1]; [18],"0.0224 µM [falling, full curve, poor fit]"
same,max response,[1]; [20],49.7%
same,AC50,[2],"0.00891 µM [falling, full curve]"
same,AC50,[3]; [21],"0.275 µM [falling, full curve]"
same,AC50,[3]; measured here: PEO4 viability,"0.155 µM [falling, full curve]"
CCOC(=O)c1ccc(N)cc1,max response,[1]; [17],20.1%
same,AC50,[1]; [19],"2.82 µM [rising, partial curve]"
same,max response,[1]; [20],36.7%
same,AC50,[4],"3.16 µM [falling, full curve, poor fit]"
CCN(CC)CCOc1ccc(/C(=C(\Cl)c2ccccc2)c2ccccc2)cc1,max response,[1]; [17],-25.9%
same,AC50,[1]; [19],"20 µM [falling, single point]"
same,max response,[1]; [20],-35.7%
same,max response,[5],87.7%
same,max response,[6],18.4%
same,AC50,[4],"12.6 µM [falling, single point]"
same,AC50,[3]; [21],"17.4 µM [falling, single point]"
same,AC50,[3]; measured here: PEO4 viability,"17.4 µM [falling, partial curve]"
COc1ccc2cc(CCC(C)=O)ccc2c1,max response,[1]; [17],19.3%
same,AC50,[1]; [19],"31.6 µM [rising, single point]"
same,max response,[1]; [20],36.7%
same,AC50,[4],"11.2 µM [falling, partial curve]"
same,AC50,[7],"8.16 µM [falling, partial curve, poor fit]"
CC(NCCC(c1ccccc1)c1ccccc1)c1ccccc1 (stereo not given),max response,[1]; [17],-21%
same,AC50,[1]; [19],"17.8 µM [falling, single point]"
same,max response,[1]; [20],-34.7%
same,AC50,[4],"8.91 µM [falling, partial curve, poor fit]"
COc1ccnc(CS(=O)c2nc3ccc(OC(F)F)cc3[nH]2)c1OC (stereo not given),max response,[1]; [17],23.5%
same,AC50,[1]; [19],"20 µM [rising, partial curve]"
same,max response,[1]; [20],43.7%
same,AC50,[4],"35.5 µM [rising, single point]"
same,z-score,[8]; [22],0.237
same,z-score,[8]; [23],0.532
same,z-score,[8]; [24],-0.0816
N=c1nc(N2CCCCC2)cc(N)n1O,max response,[1]; [17],-75.5%
same,AC50,[1]; [18],"39.8 µM [falling, partial curve, poor fit]"
same,max response,[1]; [20],-73.9%
same,AC50,[4],"20 µM [rising, single point]"
same,z-score,[8]; [22],0.324
same,z-score,[8]; [23],0.726
same,z-score,[8]; [24],0.519
same,AC50,[8]; TFE3-RCC viability,"20.9 µM [falling, partial curve, poor fit]"
CC(C)(C)CC(C)(C)c1ccc(O)c(Cc2ccc(Cl)cc2Cl)c1,max response,[1]; [17],-63.6%
same,AC50,[1]; [18],"39.8 µM [falling, single point]"
same,max response,[1]; [20],-76.9%
same,AC50,[2],"25.1 µM [falling, single point]"
same,AC50,[4],"2.82 µM [falling, full curve, poor fit]"
CC(Cc1ccc(O)c(O)c1)C(C)Cc1ccc(O)c(O)c1 (stereo not given),max response,[1]; [17],45.8%
same,AC50,[1]; [18],"28.2 µM [rising, partial curve, poor fit]"
same,AC50,[1]; [19],"31.6 µM [rising, partial curve, poor fit]"
same,max response,[1]; [20],57%
same,AC50,[2],"17.8 µM [falling, partial curve]"
Cc1cc(C)c(/C=C2\C(=O)Nc3ccccc32)[nH]1,max response,[1]; [17],118%
same,AC50,[1]; [19],"7.94 µM [falling, full curve]"
same,max response,[1]; [20],-76.9%
same,AC50,[9],"33.8 µM [falling, partial curve]"
same,AC50,[10],"35.5 µM [falling, full curve]"
same,AC50,[11],"7.31 µM [falling, partial curve]"
same,AC50,[12],"23.1 µM [falling, partial curve, poor fit]"
same,viability change,[12],-22.3%
COc1ccc2c(c1)c(CC(=O)O)c(C)n2C(=O)c1ccc(Cl)cc1,max response,[1]; [17],18.3% and 64.9%
same,AC50,[1]; [18],"2.82 µM [rising, full curve, poor fit]"
same,max response,[1]; [20],24.8% and 68.8%
same,AC50,[9],"84.9 µM [falling, single point]"
same,viability change,[12],-7.03%
same,AC50,[13]; measured here: W460 blue channel fit,"15.8 µM [rising, single point]"
same,AC50,"[13]; measured here: W530 green channel, cytotoxicity/artifact","3.16 µM [rising, full curve]"
same,max response,[5],160% and 377%
same,AC50,[14],"44.7 µM [rising, single point]"
same,AC50,[15],"6.31 µM [rising, full curve]"
same,max response,[6],100% and 110%
same,max response,[16],61.5% and 38.7%
same,z-score,[8]; [22],0.855
same,z-score,[8]; [23],0.307
same,z-score,[8]; [24],-0.309
same,AC50,[8]; TFE3-RCC viability,"14.8 µM [falling, partial curve]"
NNc1nncc2ccccc12,max response,[1]; [17],3.18% and 21.8% and 82.3%
same,AC50,[1]; [19],"355 nM [rising, full curve, poor fit] and 2.82 µM [rising, partial curve]"
same,max response,[1]; [20],2.61% and 38.1% and 85.5%
same,AC50,[9],"47.8 µM [falling, partial curve]"
